From PubChem BioAssay AID1466 (National Center for Advancing Translational Sciences (NCATS), 2008)
Among all 200,000 compounds or so, about 10 (0.005%) were called active. This list was built around the results that the source calls inconclusive (neither active nor inactive); the mix of calls is not that of the screen. Calls come from the whole dose curve; as a rule, active = well fitted inhibition curve with a large enough effect; inconclusive = small, poorly fitted or top-dose-only effect, or effect the other way, or another doubt; inactive = no such curve, though single readings can be large or run the other way. Potencies of inconclusive entries are left out as doubtful fits.

target: Lysosomal alpha-glucosidase (Homo sapiens) (UniProt P10253); assay: qHTS Assay for Inhibitors of Human alpha-Glucosidase as a Potential Chaperone Treatment of Pompe Disease; details: purified human GAA, 4-MU-alpha-glucoside fluorescence; activity change, negative = inhibition: at 76.9 µM (top of the series) unless noted;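 for activity change, negative = inhibition: plate controls were uninhibited enzyme wells for no effect and no-enzyme background for full effect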
In short: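 AC50 values come from Hill fits of compound titrations (up to 77 uM) against 4 nM human enzyme. Substrate 4-methylumbelliferyl-alpha-D-pyranoside at 400 uM, pH 5.0 citrate buffer, 20 min room temperature; fluorescence Ex 365/Em 440 after alkaline stop.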
Potency is the fitted concentration of half-maximal effect; tags give direction and shape of the fitted curve.

Structure (SMILES)	activity change, negative = inhibition	Potency
O=C(Nc1nnc(Cc2ccccc2)s1)c1cnccn1	inconclusive: 15.5% [activator]	–
O=C(O)c1ccc(N=c2oc3cc(O)ccc3cc2C(=O)NCc2ccccc2)cc1	inconclusive: 75.8% [activator]	–
CCN(C(=O)c1cnc(OC)cc1C(F)(F)F)c1ccc(Cl)cc1	–	inconclusive [inhibitor, single point]
CC(C)(Oc1ccc(CCNC(=O)c2ccc(-c3ccccc3)o2)cc1)C(=O)O	inconclusive: -15.6% [inhibitor]	–
O=C(CCC(=O)N1CCN(S(=O)(=O)c2ccc3ccccc3c2)CC1)Nc1cc(Cl)cc(Cl)c1	inconclusive: -18.6% [inhibitor]	–
N#C/C(=C/c1cn(-c2ccccc2)nc1-c1cccc(S(=O)(=O)N2CCCC2)c1)C(=O)NCc1ccco1	–	inconclusive [inhibitor, single point]
COc1ccc(C2CC(c3ccccc3)=NN2c2ccccc2)c(C(=O)O)c1OC (stereo not given)	–	inconclusive [activator, partial curve]
CCOC(=O)c1cccc(NC(=O)Cn2cnc3c2c(=O)n(C)c(=O)n3C)c1	–	inconclusive [inhibitor, single point]
N#CC1=C(N)OC(c2ccccc2)=C(C#N)C1c1ccc2c(c1)OCO2 (stereo not given)	–	inconclusive [inhibitor, single point]
O=C1CC(N2CCOCC2)C(=O)N1c1ccc2c(c1)OCO2 (stereo not given)	–	inconclusive [inhibitor, partial curve]
CC1CCCCN1C(=O)/C=C/c1ccccc1[N+](=O)[O-] (stereo not given)	inconclusive: 14.2% [activator]	–
CCN(CC)CCCNC(=O)CCC(=O)Nc1ccc2nc(N3CCC(C)CC3)cc(C)c2c1	–	inconclusive [activator, partial curve]
Cc1noc(C)c1/C=N/Nc1ccc2ccccc2n1	–	inactive
CCOc1ccc(NC(=O)c2ccccc2OC)cc1	inconclusive: -17% [inhibitor]	–
Cc1cccc(-n2ccnc2SCC(=O)Nc2nccs2)c1	–	inconclusive [activator, full curve, poor fit]
N#C/C(=C\Nc1ccc2cn[nH]c2c1)c1nc(-c2ccc(Cl)cc2)cs1	–	inactive
CC(C)CSc1ncc(-c2cccc(C(F)(F)F)c2)cn1	–	inconclusive [activator, full curve, poor fit]
CN1CC(=O)N(CC(=O)N2N=C(c3ccc(Cl)cc3)CC2c2ccco2)C1=O (stereo not given)	–	inconclusive [inhibitor, single point]
COC(=O)C1=C(N)Oc2c(oc(CO)cc2=O)C1c1c(F)cccc1Cl (stereo not given)	–	inconclusive [inhibitor, single point]
COc1cc(OC)cc(C(=O)N[C@H](C(=O)OCC(=O)Nc2ccc(C(N)=O)cc2)C(C)C)c1	–	inconclusive [inhibitor, single point]
Cc1cc2nc3c(=O)[nH]c(=O)[nH]c3nc2c([N+](=O)[O-])c1N	–	inactive
CC(=O)Nc1ccc(NC(=O)COC(=O)c2cnccn2)cc1	–	inconclusive [inhibitor, partial curve, poor fit]

Structure (SMILES)	activity change, negative = inhibition	Potency
CN(Cc1cnn(C)c1)Cc1nc(COc2ccccc2)no1	–	inconclusive [inhibitor, single point]
CCCn1c(N)c(N2CCCCC2)c(=O)n(CC(=O)Nc2ccccc2)c1=O	–	inconclusive [inhibitor, partial curve]
COc1ccc2cc3cc(C(=O)NCc4ccccn4)oc3nc2c1	–	inconclusive [activator, single point]
CN(Cc1cccnc1)Cc1cn(C)nc1-c1ccc(Oc2ccccc2)cc1	–	inconclusive [inhibitor, partial curve]
CCOC(=O)c1[nH]cnc1C(=O)Nc1ccccc1C	–	inconclusive [inhibitor, single point]
CCc1ccc(NC(=S)Nc2cc(OC)c(NC(=O)C(C)C)cc2OC)cc1	–	inactive
c1ccc(COc2ccc(CN3CCN(c4ccccn4)CC3)cc2)cc1	–	inactive
CNc1ccc(/C=C(\CCC(=O)O)c2nc3ccccc3s2)cc1[N+](=O)[O-]	–	inconclusive [inhibitor, single point]
Cc1ccc(C(=O)NC2(C(F)(F)F)NC(=O)N(c3ccc(Cl)cc3)C2=O)cc1 (stereo not given)	–	inconclusive [inhibitor, single point]
CCOC(=O)c1sc2nc(C)cc(-c3ccccc3)c2c1N	–	inconclusive [inhibitor, single point]
COCc1nnc(NC(=O)c2cccs2)s1	–	inconclusive [inhibitor, full curve]
Nc1nc(-c2ccc(Br)cc2)c(S(=O)(=O)c2ccccc2)s1	–	inconclusive [inhibitor, single point]
Cc1nn(C)c(C)c1S(=O)(=O)N(CC(=O)Nc1ccc2c(c1)OCO2)c1ccc(C(C)C)cc1	–	inconclusive [inhibitor, full curve, poor fit]
CCN1C(=O)/C(=C2/SC(C)=C(C)N2CC)SC1=S	–	inconclusive [inhibitor, partial curve]
CCn1c(=Nc2ccc(N3CCOCC3)cc2)ccc2ccccc21	–	inactive
NC(N)=Nc1nc2ccc([N+](=O)[O-])cc2[nH]1	inconclusive: -15.9% [inhibitor]	–
S=C(Nc1ccc(N2CCOCC2)cc1)Nc1ccc2nc(-c3ccco3)c(-c3ccco3)nc2c1	inconclusive: -15.1% [inhibitor]	–
O=C(CN1CCN(Cc2ccccc2)CC1)NC(=O)NCc1ccco1	–	inconclusive [inhibitor, single point]
CCc1nc(SCC(=O)NNC(=O)c2ccc(OC)cc2)c2ccccc2n1	–	inconclusive [inhibitor, single point]
NC(=O)c1nsc(C(=O)N(CC(=O)NCc2ccc3c(c2)OCO3)C2CCCC2)c1N	–	inconclusive [inhibitor, single point]
CC(=O)NN1C(=O)c2ccccc2NC1c1ccco1 (stereo not given)	–	inconclusive [activator, single point]
COc1ccc(C(Nc2ccc(S(=O)(=O)NCC3CCCO3)cc2)C(=O)NC(C)(C)C)cc1OC (stereo not given)	inconclusive: 17.4% [activator]	–

Structure (SMILES)	activity change, negative = inhibition	Potency
O=C(CNS(=O)(=O)c1cccs1)N1CCN(c2ccccn2)CC1	–	inactive
CC(=O)Cn1c(CN2CC(C)CC(C)C2)nc2c1c(=O)n(C)c(=O)n2C (stereo not given)	–	inconclusive [inhibitor, single point]
O=[N+]([O-])c1cccc(Cl)c1NCCNc1ncc(C(F)(F)F)cc1Cl	–	inconclusive [inhibitor, full curve, poor fit]
Cc1ccc(CCNc2ccccc2C)cn1	–	inconclusive [inhibitor, single point]
CCC(N=c1cc(-c2ccc(OC)cc2)oc2ccc(C)cc12)C(=O)O (stereo not given)	–	inconclusive [activator, partial curve]
CC(C)Oc1ccc(CNC(=S)N/N=C/c2cccnc2)cc1	–	inconclusive [inhibitor, partial curve]
COCC(C)N1C(=O)Cc2c1nc(N)c1c(N)nc(N3CCN(c4ccccc4F)CC3)c(C#N)c21 (stereo not given)	–	inconclusive [inhibitor, single point]
COc1cc(NC(=O)c2ccco2)c(OC)cc1NC(=O)CSc1ncc(-c2ccc(F)cc2)[nH]1	–	inconclusive [activator, single point]
CCOC(=O)C1(Cc2cccc(F)c2)CCN(Cc2cnn(CC)c2C)CC1	–	inconclusive [activator, partial curve, poor fit]
COc1cccc(-c2ccc(=O)n(CC(=O)Nc3ccc(C(=O)N4CCCC4)cc3)n2)c1	–	inconclusive [inhibitor, partial curve]
COc1ccc(-c2nn(-c3ccccc3)cc2CNCCN2CCOC2=O)c(F)c1	inconclusive: 22.7% [activator]	–
O=C(Cc1cccs1)Nc1cccc(C(=O)Nc2ccco2)c1	–	inconclusive [inhibitor, partial curve]
COc1ccccc1C1C2=C(N=c3s/c(=C/c4cccc(OCC(=O)O)c4)c(=O)n31)c1ccccc1CC2 (stereo not given)	–	inconclusive [inhibitor, partial curve]
CCN(CC)Cc1cc(C(=O)O)c(C)o1	inconclusive: 23.6% [activator]	–
Cc1cccc(NC(=S)NCc2ccc3c(c2)OCO3)c1C	–	inconclusive [inhibitor, single point]
Cc1nc2ccccc2c(=O)n1NC(=O)C1CCCCC1	–	inconclusive [inhibitor, full curve, poor fit]
CCN(C(=O)C1CCN(S(=O)(=O)c2ccc3c(c2)oc(=O)n3C)CC1)c1cccc(C)c1	–	inconclusive [inhibitor, single point]
CN(C1CCCCC1)S(=O)(=O)c1ccc(S(=O)(=O)N2CCCC2)cc1	–	inconclusive [inhibitor, partial curve]
CCn1c(SCC(=O)N/N=C/c2ccc(OC)c(OC)c2)nc2ccccc21	–	inconclusive [inhibitor, single point]
COc1ccccc1/C=C/C(C)=O	–	inactive
CC1=NCCN1CCNC(=O)Nc1cc(C)cc(C)c1	inconclusive: -17.8% [inhibitor]	–
